{
  "source": "PubChem BioAssay AID504339",
  "about": "(National Center for Advancing Translational Sciences (NCATS), 2011)",
  "note": "The campaign covered roughly 390,000 compounds. About 17,000 (4.4%) were called active. This list was built around the results that the source calls inconclusive (neither active nor inactive); the mix of calls is not that of the screen. The call rests on the fitted dose curve; in most records, active means well fitted inhibition curve with a large enough effect; inconclusive means small, poorly fitted or top-dose-only effect; inactive means no such curve, though single readings can be large or run the other way. Potencies of inconclusive entries are doubtful fits and often do not repeat. On the % scale 0 is the no-effect control and ±100 the full control effect; potency means the concentration at half of the fitted maximal effect; tags describe the fitted curve by direction and shape.",
  "data": [
    {"molecular_target": "Lysine-specific demethylase 4A (Homo sapiens) (UniProt O75164)", "sequence (O75164 whole entry, looked up, the tested form may be a part)": "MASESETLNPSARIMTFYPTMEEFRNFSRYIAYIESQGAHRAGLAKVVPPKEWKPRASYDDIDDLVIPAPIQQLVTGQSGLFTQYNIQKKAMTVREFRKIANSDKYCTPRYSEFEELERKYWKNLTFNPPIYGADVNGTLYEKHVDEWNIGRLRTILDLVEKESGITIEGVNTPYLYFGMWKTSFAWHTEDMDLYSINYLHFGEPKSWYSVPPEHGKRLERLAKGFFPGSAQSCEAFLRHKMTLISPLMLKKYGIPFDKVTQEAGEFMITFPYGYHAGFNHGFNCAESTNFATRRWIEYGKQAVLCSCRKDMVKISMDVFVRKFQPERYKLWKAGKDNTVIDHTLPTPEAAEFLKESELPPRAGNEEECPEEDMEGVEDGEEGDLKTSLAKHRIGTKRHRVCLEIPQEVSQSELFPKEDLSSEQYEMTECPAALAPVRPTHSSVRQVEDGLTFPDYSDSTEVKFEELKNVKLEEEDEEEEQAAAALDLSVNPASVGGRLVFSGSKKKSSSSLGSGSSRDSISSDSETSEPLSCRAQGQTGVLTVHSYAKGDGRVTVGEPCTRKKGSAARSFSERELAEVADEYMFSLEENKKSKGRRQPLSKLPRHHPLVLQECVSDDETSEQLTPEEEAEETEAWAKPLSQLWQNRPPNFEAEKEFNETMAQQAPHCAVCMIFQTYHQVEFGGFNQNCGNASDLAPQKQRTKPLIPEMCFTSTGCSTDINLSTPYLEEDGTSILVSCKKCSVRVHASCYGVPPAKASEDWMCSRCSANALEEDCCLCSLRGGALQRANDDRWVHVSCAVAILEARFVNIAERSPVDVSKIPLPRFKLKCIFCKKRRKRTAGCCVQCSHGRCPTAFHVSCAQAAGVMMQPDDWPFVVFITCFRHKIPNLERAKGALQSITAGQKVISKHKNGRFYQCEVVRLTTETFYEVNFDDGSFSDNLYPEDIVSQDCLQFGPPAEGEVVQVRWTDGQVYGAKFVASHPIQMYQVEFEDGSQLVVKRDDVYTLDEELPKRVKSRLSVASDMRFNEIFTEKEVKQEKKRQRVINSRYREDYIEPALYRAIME", "assay": "qHTS Assay for Inhibitors of JMJD2A-Tudor Domain; further: nearly all actives have a fitted effect of over 50% in size", "conditions": "AlphaScreen JMJD2A-Tudor / H3K4me3 peptide binding; activity change, negative = inhibition: at 114 µM (top of the series)", "values": [
      {"smiles": "S=c1[nH]nc(-c2ccccc2)n1/N=C/c1ccc(-c2ccccc2Cl)o1", "Potency": "inconclusive: 11.2 µM [inhibitor, full curve, poor fit]"},
      {"smiles": "CCNC(=S)N/N=C/c1cn(Cc2ccccc2F)c2ccccc12", "Potency": "inconclusive: 35.5 µM [inhibitor, single point]"},
      {"smiles": "COc1ccc(/C=C/C(=O)Nc2nc(C)cc(C)n2)cc1OC", "Potency": "active: 50.1 µM"},
      {"smiles": "O=C(N/N=C/c1ccc(O)cc1O)C(=O)N/N=C/c1ccc(O)cc1O", "Potency": "active: 2.51 µM"},
      {"smiles": "CCn1c(Nc2ccccc2Cl)nc2ccccc21", "Potency": "active: 44.7 µM"},
      {"smiles": "COc1cc(/C=C2\\SC(c3ccc(C)cc3)=NC2=O)ccc1O", "Potency": "active: 28.2 µM"},
      {"smiles": "COc1ccc(CCN2CC(C(=O)N(C)CC(=O)Nc3ccc(F)c(F)c3F)CC2=O)cc1OC", "note": "(centres undefined)", "activity change, negative = inhibition": "inactive: -20.3%"},
      {"smiles": "CCc1ccc(NC(=O)CSc2nccn(-c3ccc4c(c3)OCCO4)c2=O)cc1", "activity change, negative = inhibition": "inactive: -28.8%"},
      {"smiles": "Fc1ccc(-c2nnc(NC3=NCCCCC3)o2)cc1", "activity change, negative = inhibition": "inactive: -2.26%"},
      {"smiles": "CCOC(=O)c1cc(-c2ccccc2)sc1NC(=O)c1ccc(OC)c(OC)c1", "Potency": "inconclusive: 89.1 µM [inhibitor, single point]"},
      {"smiles": "CCOc1ccc(N2C(=O)CC(SC(=NC)Nc3ccc(F)cc3)C2=O)cc1", "note": "(centres undefined)", "activity change, negative = inhibition": "inactive: 6.09%"},
      {"smiles": "CCOC(=O)CCCCC(=O)c1[nH]c(=O)[nH]c1CSc1nc(-c2ccccc2)c(C#N)c(=O)[nH]1", "Potency": "inconclusive: 79.4 µM [inhibitor, partial curve]"},
      {"smiles": "CN1c2ccccc2-c2nc(SCC(=O)Nc3ccccc3C(F)(F)F)ncc2S1(=O)=O", "activity change, negative = inhibition": "inactive: -11.4%"},
      {"smiles": "CCOc1ccc(NC(=S)NC(=O)c2c(Cl)cnn2CC)c([N+](=O)[O-])c1", "Potency": "inconclusive: 8.91 µM [inhibitor, partial curve, poor fit]"},
      {"smiles": "COc1ccc(Nc2ncc(C(=O)N3CCN(Cc4ccccc4)CC3)c3ccccc23)cc1", "Potency": "inconclusive: 25.1 µM [inhibitor, full curve, poor fit]"},
      {"smiles": "O=C(CCCCn1c(=S)[nH]c2ccsc2c1=O)NCc1ccco1", "Potency": "active: 25.1 µM"},
      {"smiles": "C#CCOCCOCCOCCNc1nc(N2CCN(C(=O)CCCCCCCCCCNC(=O)[C@H](CO)n3cc(CCCSC)nn3)CC2)nc(N2CCN(C(=O)CCCCCCCCCCNC(=O)[C@H](CCCN=C(N)N)n3cc(C[C@@H](C)CC)nn3)CC2)n1", "Potency": "active: 79.4 µM"},
      {"smiles": "CC(=O)Nc1ccc(C(=O)N/N=C/c2ccccc2OCc2ccccc2)cc1", "Potency": "inconclusive: 56.2 µM [inhibitor, partial curve]"},
      {"smiles": "CCN(CC)c1ccc(NC(=O)c2ccccc2Br)cc1S(=O)(=O)Nc1ccccc1OC", "Potency": "active: 17.8 µM"}
    ]}
  ]
}
